Out of some 360,000 compounds screened, about 6,000 (1.7%) were called active. This list was built around the results that the source calls inconclusive (neither active nor inactive); the mix of calls is not that of the screen. The call rests on the fitted dose curve; in most records, active means well fitted cell-killing curve with a large enough effect; inconclusive means small, poorly fitted or top-dose-only effect, or effect the other way; inactive means flat fitted curve, though single readings scatter. No potency is given beside an inconclusive call; the fits are too rough.
Test: qHTS for induction of synthetic lethality in tumor cells producing 2HG: qHTS for the HT-1080-NT fibrosarcoma cell line;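 further: NT is the 2HG producing partner of a matched IDH1 knockdown line; nearly all actives have a fitted effect of over 55% in size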;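 on activity, negative = less viability: 0% = DMSO-treated cells and -100% = media-only wells without cells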
Conditions: HT-1080-NT fibrosarcoma viability, CellTiter-Glo ATP luminescence, 48 h; activity, negative = less viability: at 46.1 µM (top of the series) unless noted
Method in brief: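 HT-1080-NT; 750 cells/well; 5% FBS RPMI; 48 h compound, 37 degrees C; CellTiter-Glo luminescence; curve fitting and curve-class assignment.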
Potency means the concentration at half of the fitted maximal effect; tags describe the fitted curve by direction and shape.

| SMILES | Potency | activity, negative = less viability |
| --- | --- | --- |
| Nc1c(C(=O)c2ccccc2)sc2nsc(SCCN3CCCC3)c12 | active: 11.6 µM |  |
| CN=C1S/C(=C\c2ccc(O)c(OC)c2)C(=O)N1C |  | inactive: -29.5% |
| CCN(CC)CCCNC(=O)CNC(=S)N(CCCN1CCOCC1)Cc1cccs1 | inconclusive [rising, full curve] |  |
| C[C@H](CO)N1C[C@H](C)[C@@H](CN(C)Cc2ccc(C(=O)O)cc2)Oc2ncc(-c3ccc(C(=O)N(C)C)cc3)cc2C1=O |  | inactive: -1.98% |
| COC(=O)c1cc(NC(=O)Cc2ccccc2[N+](=O)[O-])cc(C(=O)OC)c1 |  | inactive: 3.05% |
| O=C(NC1CCCC1)c1ccc(COCC(F)(F)F)o1 | inconclusive [rising, single point] |  |
| Oc1ccc(C[C@H]2CNCCN2CCc2cc(C(F)(F)F)cc(C(F)(F)F)c2)cc1 | inconclusive [cytotoxic, partial curve] |  |
| Cn1c2c(c(=O)n(C)c1=O)C(C(F)(F)F)(C(F)(F)F)N=C(CCC1CCCCC1)N2 | inconclusive [cytotoxic, partial curve] |  |
| COc1ccc(-c2ccc3oc(-c4ccc(OC)cc4)c(C#CCO)c3c2)cc1 | active: 20.6 µM |  |
| Cc1ccc2nc(C)c3c(c2c1)OC(C(C)(Cl)Br)C3 (stereo not given) | inconclusive [cytotoxic, single point] |  |
| S=C(NCCCN1CCN(CCCNC(=S)NC2CCCCC2)CC1)NC1CCCCC1 | inconclusive [cytotoxic, partial curve] |  |
| Cc1ccc(C(=O)C(C)OC(=O)c2n[nH]c(=O)c3ccccc23)cc1 (stereo not given) |  | inconclusive: 43.3% |
| CC(Nc1nc(N2CCCCC2)nc2ccccc12)c1ccccc1 (stereo not given) | inconclusive [cytotoxic, single point] |  |
| CCN(CC)S(=O)(=O)c1ccc2oc(Nc3ccccc3)nc2c1 | inconclusive [cytotoxic, full curve, poor fit] |  |
| COc1cc(/C=N/NC(=O)CN2CCCCC2)ccc1OCc1ccccc1 |  | inactive: -5.29% |
| Cc1ccc(S(=O)(=O)N(C(=O)c2ccco2)c2cc3sc(=O)oc3c3ccccc23)cc1 | inconclusive [cytotoxic, single point] |  |
| CCCc1ccc(OCc2ccc(C(=O)N3CCCC3)o2)cc1 | inconclusive [cytotoxic, single point] |  |
| COc1cccc2sc(Nc3nc4ccc(NC(C)=O)cc4s3)nc12 | inconclusive [cytotoxic, partial curve] |  |
| CCCNC(=O)c1cc(C2CCCCN2C(=O)OC)on1 (stereo not given) | inconclusive [rising, single point] |  |
| O=[N+]([O-])c1c(NCCCO)cc(N2CCN(Cc3ccc4c(c3)OCO4)CC2)c2nonc12 |  | inactive: -22.3% |
| Cc1ccc(C)c(SCC(=O)Nc2ccc(S(=O)(=O)Nc3ncccn3)cc2)c1 | inconclusive [cytotoxic, single point] |  |
| CCC(=O)N1CCC(C)(C(=O)NCc2ccc(F)cc2)C1 (stereo not given) | inconclusive [rising, partial curve] |  |
| O=[N+]([O-])c1ccc(N2CCN(c3ccccc3F)CC2)c(S(=O)(=O)N2CCOCC2)c1 |  | inactive: -6.87% |
| CCCn1c(NC(=O)CN2C(=O)NC3(CCCCC3)C2=O)nc2ccccc21 | inconclusive [cytotoxic, single point] |  |

| SMILES | Potency | activity, negative = less viability |
| --- | --- | --- |
| CC(=O)Nc1ccccc1-c1nc2ccccc2nc1OCC(=O)c1ccc2ccccc2c1 | inconclusive [cytotoxic, single point] |  |
| CCN(c1ccccc1)S(=O)(=O)c1ccc2c(c1)N(C(C)=O)CCS2 |  | inactive: -1.34% |
| CCn1c(Sc2ccc(N)cc2Cl)nc2ccccc21 | inconclusive [cytotoxic, single point] |  |
| CC(C)CC1C(=O)N(Cc2cn(CC3CCCCC3)nn2)CCS(=O)(=O)N1Cc1ccc(-c2ccc(Cl)c(Cl)c2)cc1 (stereo not given) | inconclusive [cytotoxic, single point] |  |
| O=C(CSc1n[nH]c(-c2ccccc2O)n1)N1CCCc2ccccc21 | inconclusive [cytotoxic, partial curve] |  |
| OC1C(O)C(O)C(O)C(O)C1O (stereo not given) |  | inconclusive: 41.9% |
| COC(=O)c1ccccc1S(=O)(=O)N1CCCC(c2nc3c(nnn3Cc3ccc(C)cc3)c(=O)[nH]2)C1 (stereo not given) | inconclusive [cytotoxic, single point] |  |
| O=C(Nc1ccc(N2CCOCC2)cc1)c1nc2ccccc2s1 | inconclusive [rising, single point] |  |
| O=P(c1ccccc1)(c1ccccc1)C(O)c1cccs1 (stereo not given) |  | inactive: -11.6% |
| Cc1noc(C)c1S(=O)(=O)Nc1ccc2c(c1)C(=O)N([C@@H](C)CO)C[C@H](C)[C@@H](CN(C)Cc1ccc(C(F)(F)F)cc1)OCCCC[C@H](C)O2 | inconclusive [cytotoxic, partial curve] |  |
| CCN(c1ccc(OC)cc1)S(=O)(=O)N1CCCC(C(=O)NCc2ccccc2Br)C1 (stereo not given) | inconclusive [cytotoxic, single point] |  |
| Cc1ccc(C(=O)Nc2ccc(S(=O)(=O)N3CCOCC3)cc2)cc1Br | inconclusive [cytotoxic, single point] |  |
| COc1ccc(COc2cc(-c3cccc(OC)c3)nc3ccc(NC(=O)c4ccc(OC)cc4)cc23)cc1 | active: 5.17 µM |  |
| Cc1ccc(-c2onc(C)c2C)cc1S(=O)(=O)N1CCOc2ccccc21 | inconclusive [cytotoxic, single point] |  |
| CC1CC(C)CN(CCOCCSc2ccc(Cl)cc2)C1 (stereo not given) | inconclusive [cytotoxic, partial curve] |  |
| CCOCc1cnc(C)nc1NCC(=O)c1c(C)[nH]c2cc(C)ccc12 | inconclusive [cytotoxic, single point] |  |
| CCOC(=O)c1c(NC(=O)C2C3C=CC(C3)C2C(=O)O)sc2c1CCCC2 (stereo not given) |  | inactive: -16.9% |
| COc1ccc(Nc2ccnc(Nc3ccc(OC)cc3)n2)cc1 | active: 23.1 µM |  |
| CC(=O)OC[C@@H]1CN(Cc2cccc(C(F)(F)F)c2)C[C@H](n2cnc3c(NCc4ccco4)ncnc32)O1 |  | inactive: -15.5% |
| Cc1cccc(N2CCN(C(=O)CSc3nnnn3C3CC3)CC2)c1C |  | inactive: -1.24% |
| Nc1nc2ccc(Cl)cc2c2nc(-c3ccco3)nn12 |  | inactive: -24.5% [at 92.2 µM] |
| NS(=O)(=O)c1ccc(NC(=O)Cc2c(F)cccc2Cl)cc1 |  | inactive: -6.44% |
| O=C1[C@@H](c2ccccc2)[C@@H](c2ccccc2)N1c1cccnc1 | inconclusive [cytotoxic, single point] |  |
| Cc1ccc(C)c(-n2c3nc(=O)[nH]c(=O)c-3cc3cc([N+](=O)[O-])ccc32)c1 | active: 6.51 µM |  |

| SMILES | Potency | activity, negative = less viability |
| --- | --- | --- |
| Cc1sc2nc(SCC(=O)N3CCCC3)[nH]c(=O)c2c1C |  | inactive: 1.72% |
| COc1ccccc1Cc1c(C2CCCCC2)nc2ccc(C)cn12 | active: 13 µM |  |
| CC(=O)OC1CCC2(C)C(=CCC3C4CC(=O)N(O)C(=O)C4(C)CCC32)C1 (stereo not given) | inconclusive [cytotoxic, partial curve] |  |
| COc1ccc(/C=C2\SC(=S)N(CCCC(=O)NNC(=O)c3ccccc3O)C2=O)cc1 | inconclusive [cytotoxic, full curve, poor fit] |  |
| CCOC(=O)C1(CCCc2ccccc2)CCN(Cc2cnc(C)s2)CC1 | active: 18.4 µM |  |
| CCOc1ccc(S(=O)(=O)NCc2ccncc2)cc1NC(=O)c1ccccc1F | inconclusive [cytotoxic, single point] |  |
| N#CCC(CNc1ncc(C(F)(F)F)cc1Cl)OC(=O)c1ccc(Cl)cc1Cl (stereo not given) | inconclusive [cytotoxic, single point] |  |
| S=C1SCN(Cc2ccco2)CN1Cc1ccco1 | inconclusive [cytotoxic, single point] |  |
| N#C/C(=C(/O)CCl)c1nc2c(s1)CCc1ccccc1-2 | inconclusive [cytotoxic, partial curve] |  |
| COc1cc(/C=C/[N+](=O)[O-])ccc1OCc1cccc(C(=O)O)c1 | inconclusive [cytotoxic, single point] |  |
| CCC(Sc1nc2ncccc2[nH]1)C(=O)NCCc1ccccc1 (stereo not given) |  | inactive: -4.85% |
| CCOC(=O)CS(=O)(=O)c1nc(-c2ccc(F)cc2)cc(C(F)(F)F)n1 | active: 6.51 µM |  |
| Cc1nc2ccc(S(=O)(=O)Nc3cc(-c4nc5cccnc5s4)ccc3C)cc2s1 | inconclusive [cytotoxic, single point] |  |
| COc1ccc(C2C(C#N)=C(N)Oc3c2ccc2cccnc32)cc1OC (stereo not given) | inconclusive [cytotoxic, partial curve, poor fit] |  |
| Cc1cccc(C)c1NC(=S)NC(=O)CCc1ccccc1 | active: 10 µM |  |
| O=C(CS)Nc1ccc2ccccc2c1 | active: 20.6 µM |  |
| CC(=O)Nc1ccc(-c2ccnc3c2CC(C(=O)Nc2ccc(Cl)c(C(F)(F)F)c2)O3)cc1 (stereo not given) | inconclusive [cytotoxic, partial curve] |  |
| O=C(Nc1cccc(OC(F)(F)F)c1)C1Cc2c(-c3cccc(F)c3)ccnc2O1 (stereo not given) | inconclusive [cytotoxic, single point] |  |
| C=CCCCCCCCCC(=O)NN | inconclusive [cytotoxic, single point] |  |
| O=C(NCCN1CCOCC1)c1cc(-c2ccco2)on1 |  | inactive: 3.94% |
| CC(C)(C)S(=O)N1Cc2ccc(CO)cc2[C@@H]1CCO (stereo not given in full) |  | inactive: 0.886% |
| CCN(CC)CCn1c(SCC(=O)Nc2ccc3c(c2)CCC3)nc2ccccc2c1=O | inconclusive [cytotoxic, single point] |  |

Source: PubChem BioAssay AID686970 (National Center for Advancing Translational Sciences (NCATS), 2013)
